The text below walks through data of US11344574B2, “Fluoro substituted porphyrin compounds, pharmaceutical compositions comprising the same, and methods of preparing and using the same” (Duke University, priority 2017, dated 2022).

Where two headings read alike, the source gives them in different places.

Data set [1] can be described thus: Metal-centered reduction potential for the Mn^IIIP/Mn^IIP redox couple. In kind it is physicochemical. The note with it: vs normal hydrogen electrode.
Data set [2] in a line: SOD mimicking: catalysis of O2.^− dismutation. Format: biochemical. The note with it: for log kcat (O2−^•): ability to mimic SOD enzyme in catalysis of O2.^− dismutation.
The next data set concerns 4T1 breast tumor. Kind of data set: Mouse flank 4T1 tumor radio- and chemosensitization study, MnP 0.2 mg/kg. The note with it: triple combination MnP 0.2 mg/kg sc + ascorbate + radiation. Format: in vivo.
Another data set relates to stroke model. The data set is described as follows: Stroke model. Format: in vivo. An excerpt: In addition to such problems that control the formation of a variety of compounds in the final preparation, the impact of 3 fluorine atoms at the end of the chains may have a detrimental impact on the synthesis and metallation steps. Two strong electron-withdrawing effects from opposite sides of the oxygen atoms—from the nitrogen atoms and from the fluorine atoms—destabilize the ether linkage and preclude the formation of the porphyrin and its Mn complex. Finally, the design of such a molecule having polar fluorine atoms along with polar oxygen atoms, based on our present knowledge, would end up with reduced lipophilicity and therefore reduced bioavailability. […] However its redox properties allow it to be protective in a stroke model if given intracerebroventricularly.

Data set [3] is described as follows: Blood pressure drop (hypotension) after iv MnP. The conditions noted are these: for blood pressure drop: given iv.
Data set [4] in a line: Ability of MnP to catalyze ascorbate oxidation, initial rates assessed spectrally. The conditions noted are these: for v0(Asc oxid): initial rate of ascorbate oxidation, 10 μM MnP, 1 mM Asc, aerobic, 25 °C, pH 7.8; for catalysis of ascorbate oxidation (in words): compared with non-fluorinated MnP.
The nature of data set [5]: Levels of Mn porphyrins in tumor, muscle and liver of the sc flank 4T1 mouse study (LCMS/MS). The note with it: 2 mg/kg.
A further data set concerns PC3 cells. Kind of data set: Clonogenic survival of PC3 cells with MnP alone or with radiation and ascorbate. Format: cell-based. As for the experimental part:
Aggressive prostate tumor PC-3 cells were treated overnight with PBS, MnTE-2-PyP^5+ (Mn1), or MnTFE-2-PyP^5+ (Mn3) using doses of 0.1 μM, 0.5 μM, and 1 μM. […] Each sample was serially diluted, and seeded into 6-well plates at 500 cells/well in three technical replicates. The cells were allowed to grow for 11 days then fixed with 70% EtOH and stained in 0.5% crystal violet and 25% methanol. Colonies containing 50 or more cells were counted and reported as the surviving fraction of cells seeded, normalized to plating efficiency of untreated cells at the same density. These experiments were repeated in triplicate and the mean and SEM were reported.
FIG. 3 depicts the results from an examination of the effectiveness of MnTFE-2-PyP^5+ (Mn3, FIG. 1, Formula II) in killing the radiation-resistant prostate cancer cell line (PC3) compared with its non-fluorinated analog, MnTE-2-PyP^5+ (Mn1, FIG. 1)). […] Fluoro porphyrins distribute less in vivo than do non-fluoro analogs (FIG. 6) but seem to have kinetic advantage in producing larger therapeutic effects.

A short description of a further data set: Mouse toxicity. Format: in vivo.
The nature of data set [6]: Maximal tolerable dose (MTD) studies. The note with it: rat, in vivo, ip; intraperitoneal. Set-up: species or system rats. As for the experimental part: The dose we identified as entirely safe was then given for 2 weeks. […] A dose above 0.5 mg/kg of MnTF3Pen-2-PyP^5+ seems to impose some toxicity expressed as hypotonia and reluctance to ambulate. We have thus decided to continue with 0.5 mg/kg which appears as safe non-toxic MTD dose for multiple dosing.

In another data set the test system is prostate tissue. Kind of data set: Radioprotection of prostate tissue, histopathology (H&E). The note with it: in the presence of Mn4 and RT, ascorbate 1 g/kg. As for the experimental part:
Tissue was stained with H&E.
Mn4 administration started at 24 hours before RT. Mn4 was given at 0.5 mg/kg sc for the first 4 weeks daily except for weekends, and then twice weekly for the next 5 weeks. Single 20 Gy RT dose was given.
The tissues were preserved, half of them in formalin and another half snap-frozen for different analyses. Prostate is the only tissue directly radiated and the penile function was known to suffer radiation damage.

For orientation: MTD means the largest dose that counted as tolerated.

Consider “Mn(III) ortho N-butoxyethylpyridylporphyrin [Mn2, reference compound]”, for which the “E1/2, mV vs NHE” value in data set [1] is “+277 mV”. In addition, the “log kcat (O2−^•)” value in data set [2] amounted to 7.83. For the same compound, the tumor growth inhibition entry in the data set with 4T1 breast tumor is listed as “Strong tumor suppression”. The entries for the “protection in a stroke model” value in the data set on stroke model (given intracerebroventricularly) and with stroke model (given subcutaneously) were “protective” and “does not offer protection”, respectively. Moreover, in [3], the blood pressure drop entry is on record as “does”. For the same compound, the “v0(Asc oxid)” value in data set [4] was found to be 296 nM/s. The “levels in tumor, muscle and liver (in words)” value (“levels in tumor” for short) in data set [5] was “at higher levels”.
For the compound MnTnHex-2-PyP^5+, the “protection in a stroke model” value with stroke model (given subcutaneously) is “does”.
As for `FCC[n+]1ccccc1C1=C2C=CC3=[N+]2[Mn]24[n]5c1ccc5C(c1cccc[n+]1CCF)=C1C=CC(=[N+]12)C(c1cccc[n+]1CCF)=c1ccc([n]14)=C3c1cccc[n+]1CCF` [Mn3, Mn(III) 5,10,15,20-tetra(2-fluoroethylpyridinium-2-yl)porphinato pentachloride], the “E1/2, mV vs NHE” value in data set [1] is reported as “+242 mV”. Besides, the “log kcat (O2−^•)” value in data set [2] came to 7.91. In data set [2] (vs Mn2, FIG. 4 panel B), the “redox activity with regards to SOD mimicking (in words)” value is reported as “largely improved redox activity with regards to SOD mimicking”. For the same compound, in the data set on PC3 cells, the “cytotoxicity towards radiation-resistant prostate cancer cell line” value is on record as “cytotoxicity to tumor cells”. In addition, the “cytotoxicity towards radiation-resistant prostate cancer cell line” value in the data set with PC3 cells (listed as MnTFE-2-PyP^5+) is “superior cytotoxicity”. In “Mouse toxicity” (Mn3 vs Mn2, FIG. 4 panel A), this compound gave a lower mouse toxicity of about 10 fold. The “toxicity compared with BMX-001” value in “Mouse toxicity” (mouse, in vivo) is given as “less toxic”. The compound further displayed a lower hypotension in data set [3] (Mn3 vs Mn2, FIG. 4 panel D) of over 10 fold. In addition, the blood pressure drop entry in [3] was “no blood pressure drop”. Further, in data set [4], the “catalysis of ascorbate oxidation (in words)” value is “increased catalytic potency with regards to Asc oxidation” and the “v0(Asc oxid)” value is 543 nM/s. For the same compound, the “catalysis of ascorbate oxidation (in words)” value in data set [4] (listed as MnTFE-2-PyP^5+) is “twice a higher rate constant for ascorbate oxidation”. In data set [5], the “distribution in tumor, fold less than MnTnBuOE-2-PyP^5+” value is recorded as about 3 fold; the “levels in tumor” value is on record as “lowest level in tumor”.
As for `O=C1O[C@H]([C@@H](O)CO)C(O)=C1O` [ascorbate, reference compound], the MTD at 2 weeks in data set [6] came out at 1000 mg/kg. In the data set with prostate tissue, the “toxicity of ascorbate addition to prostate tissue” value is on record as “not toxic to prostate tissue”.
In the case of `CC[n+]1ccccc1-c1c2nc(c(-c3cccc[n+]3CC)c3ccc([n-]3)c(-c3cccc[n+]3CC)c3nc(c(-c4cccc[n+]4CC)c4ccc1[n-]4)C=C3)C=C2.[Mn+3]` [Mn1, MnTE-2-PyP^5+, reference compound], in data set [1], the “E1/2, mV vs NHE” value is given as “+228 mV”. For the same compound, in [2], the “log kcat (O2−^•)” value came to 7.76. In addition, the “cytotoxicity towards radiation-resistant prostate cancer cell line” value with PC3 cells is on record as “cytotoxicity to tumor cells”. Moreover, the “v0(Asc oxid)” value in [4] was found to be 321 nM/s. Also, the “levels in tumor” value in [5] is “highest accumulation in tumor”.
For the compound MnTnPen-2-PyP^5+ [reference compound], the “E1/2, mV vs NHE” value in data set [1] is recorded as “+278 mV”. For the same compound, the “log kcat (O2−^•)” value in data set [2] worked out at 7.36. Further, in [4], the “v0(Asc oxid)” value worked out at 164 nM/s.
